# Some of the results follow. The energies were worked out here from pooled read counts, against the library average; single values are noisy.
# Molecular target: T1, Pho4 (S. cerevisiae) (UniProt P07270)
# T1 sequence: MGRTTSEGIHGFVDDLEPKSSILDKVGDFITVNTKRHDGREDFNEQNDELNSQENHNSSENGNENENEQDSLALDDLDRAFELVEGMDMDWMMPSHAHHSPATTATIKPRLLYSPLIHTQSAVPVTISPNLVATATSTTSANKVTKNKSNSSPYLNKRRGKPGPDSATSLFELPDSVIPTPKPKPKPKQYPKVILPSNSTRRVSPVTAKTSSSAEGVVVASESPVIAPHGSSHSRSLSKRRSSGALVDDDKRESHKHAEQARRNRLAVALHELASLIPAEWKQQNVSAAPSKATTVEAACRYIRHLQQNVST
# Experiment: relative binding free energy (BET-seq); higher = weaker binding
# Details: reference: library average
row,Sequence,relative binding free energy [kcal/mol]
1,AGGAACACGTGTGGGT,0.14
2,TATAGCACGTGTGGTG,-0.12
3,TTTGCCACGTGTTGAC,0.15
4,TAAGTCACGTGATAGG,0.21
5,TTAACCACGTGGTATG,-0.1
6,TTATGCACGTGGGAGG,-0.04
7,GAGGGCACGTGGGAAT,0.01
8,ATATACACGTGGTGCA,-0.05
9,TTGACCACGTGGGTTA,-0.17
10,TCGTACACGTGAGGGT,0.31
11,TGGAGCACGTGCGTGC,-0.17
12,GAATGCACGTGTGGGC,0.07
13,TTTAACACGTGGTACT,-0.02
14,TGTTACACGTGGTGCC,0.03
15,TACAACACGTGTTGGG,0.04
16,TGTGACACGTGTAAAA,0.3
17,TCTTGCACGTGTATGC,0.03
18,AGTTACACGTGTCATT,0.26
19,AAATTCACGTGAGTTT,0.38
20,TTGTCCACGTGTTTTG,0.08
21,ATTAGCACGTGTGGGA,0.03
22,TGGGTCACGTGACTTC,0.4
23,TTATGCACGTGTTCGG,-0.07
24,GTTAGCACGTGAAGGG,0.36
25,TTTTTCACGTGGAAAT,0.36

row,Sequence,relative binding free energy [kcal/mol]
1,TTGATCACGTGGACGG,0.11
2,TTGTACACGTGCGGTA,0.04
3,GGGCGCACGTGGTGAA,-0.12
4,CGATGCACGTGAGGAT,0.34
5,GGGTCCACGTGGTTGG,0.01
6,CATGGCACGTGCAGTG,0
7,AGGAGCACGTGTGTAG,-0.04
8,AGAAGCACGTGGTAGT,-0.11
9,GGTTGCACGTGGGCCT,-0.17
10,GGGGTCACGTGGCTCT,0.05
11,TTGTTCACGTGAGCTA,0.35
12,ATAGGCACGTGAGGCG,0.07
13,ACTTGCACGTGTAGGG,-0.01
14,AGAGGCACGTGGGATA,-0.22
15,AGATGCACGTGTGTTA,0
16,TAGTCCACGTGAATGG,0.3
17,ATTCTCACGTGGTCGT,0.11
18,AGCTACACGTGGGGGA,-0.17
19,CGTGGCACGTGTGCAT,-0.11
20,TGCGACACGTGTGATG,0.14
21,CGGGACACGTGTAGGA,0.1
22,GCATTCACGTGGTATT,0.23
23,TTGAGCACGTGAATTT,0.32
24,TTGTGCACGTGAATCT,0.19
25,TAGTGCACGTGTGAAG,-0.01

row,Sequence,relative binding free energy [kcal/mol]
1,TGTGGCACGTGATGGG,0.02
2,CTTTACACGTGGTTGA,0.05
3,GAGGGCACGTGGTCCG,-0.19
4,TTGGGCACGTGTGTCT,-0.13
5,AGAGTCACGTGTGGCG,0.17
6,TCAGTCACGTGAGTTA,0.24
7,TGCAACACGTGAGGTT,0.18
8,GTTACCACGTGTAATT,0.29
9,AGTAGCACGTGAGGGG,0.21
10,AGTGTCACGTGCATAG,-0.02
11,AGGGGCACGTGTTATA,-0.2
12,CAGCTCACGTGGGTGG,0.05
13,GGGTTCACGTGGCGGC,0.4
14,CTGGCCACGTGAGGTG,0.18
15,TTAAACACGTGATTGG,-0.07
16,AATTGCACGTGTGGCT,-0.05
17,CTGAGCACGTGTAGTT,0.13
18,CGGTACACGTGTTTGG,0.06
19,TGTTACACGTGGGGAC,-0.07
20,ATCAGCACGTGAGTTT,0.21
21,GTCTTCACGTGGATTT,0.2
22,TGTGCCACGTGCTGAG,-0.04
23,GGTGACACGTGCGTTT,-0.01
24,GGCTGCACGTGGTAGT,0.02
25,ATAATCACGTGGGCTT,0.13

row,Sequence,relative binding free energy [kcal/mol]
1,GTGACCACGTGGTGGG,-0.1
2,TTGTTCACGTGCTAGG,0.26
3,GCAGGCACGTGGGGCA,-0.26
4,GTTTCCACGTGGTTGA,-0.02
5,GATTTCACGTGCGGTG,0.19
6,AGTTTCACGTGATGCT,0.3
7,CTATGCACGTGGGGGG,-0.19
8,TTATTCACGTGCGTTT,0.22
9,AAGTTCACGTGCTTGT,0.2
10,GGTAGCACGTGGGCGT,-0.07
11,CGTGACACGTGGGGAA,-0.02
12,GTAACCACGTGGGTTG,-0.24
13,GGGGGCACGTGGATTG,-0.04
14,CTTATCACGTGTGGAG,0.18
15,TGCGACACGTGGGGCA,-0.1
16,CGTATCACGTGGGCTG,0.06
17,TAGTACACGTGGGGTC,-0.05
18,TTTCTCACGTGTGAGC,0.35
19,GGTAGCACGTGTGGGC,0.01
20,GGATGCACGTGGTGGG,-0.01
21,GAGATCACGTGAGGTG,0.35
22,GCTTACACGTGTTGTA,0.13
23,TGAATCACGTGATGAT,0.32
24,ATTTCCACGTGGGGTC,-0.04
25,TGAACCACGTGGGTGT,-0.13

row,Sequence,relative binding free energy [kcal/mol]
1,TTTGGCACGTGAAGCG,0.14
2,TAATTCACGTGGGGTC,0.11
3,TTTGTCACGTGGATGA,0.13
4,TATTTCACGTGTTTTA,0.23
5,TATGACACGTGGGTAT,-0.24
6,TCAGGCACGTGATTTG,0.18
7,TAAAGCACGTGGTGGT,-0.12
8,TGGTTCACGTGCGTTC,0.18
9,CATGGCACGTGTAGGA,-0.15
10,TGGTCCACGTGGCGGC,-0.03
11,GGGTACACGTGAGGTA,0.44
12,ATAGACACGTGAAGTG,0.2
13,CGGGTCACGTGTTATG,0.12
14,CGTGTCACGTGAGTAT,0.27
15,AATGTCACGTGGGTAA,-0.07
16,TGTGGCACGTGGCATA,-0.26
17,GCTTACACGTGAGGGG,0.26
18,ATAAGCACGTGGGGAA,-0.21
19,AAAGTCACGTGGTTTA,0.09
20,TTTTTCACGTGTTCGC,0.43
21,AGGCGCACGTGAGCGT,0.15
22,TAGTACACGTGTTGGC,0.15
23,TCATGCACGTGGATTT,0
24,AGTGGCACGTGAGTGG,0.14
25,TTTGTCACGTGATATG,0.16

row,Sequence,relative binding free energy [kcal/mol]
1,AGGTGCACGTGAGTGC,0.22
2,ATTTTCACGTGGCTAG,0.42
3,GGTGACACGTGTTCGA,0
4,TTAAGCACGTGGGGAC,-0.2
5,CTTTGCACGTGGGGAG,-0.15
6,TTTTACACGTGTCTGT,0.14
7,GGTTTCACGTGGTTTT,0.35
8,TAGTCCACGTGTGGCG,0.1
9,AAGTGCACGTGCTGGA,-0.02
10,TAGATCACGTGAGGAT,0.23
11,CGGTACACGTGTTCTT,0.21
12,TGTGTCACGTGGGATG,0.11
13,GTTGGCACGTGGGTGT,-0.05
14,ATAGACACGTGTAAGT,-0.03
15,AGAGGCACGTGCGCGG,-0.27
16,TGGGTCACGTGTATTA,0.09
17,AATGCCACGTGATGGG,0.08
18,GTCAACACGTGGTGGG,-0.05
19,GGGGGCACGTGGAGGT,-0.06
20,TCGTTCACGTGCGTTT,0.35
21,ATAGGCACGTGGACTG,-0.09

# — the BET-seq Pho4 binding data (Le et al. 2018)
